Some of the results follow. At the low end of the ranking the order means little.

The target of this test is GST-SBP-SLBP (stem-loop binding protein) (UniProt Q14493). Nature of the test: targeted RNA Bind-n-Seq.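 Further: DESeq read counts versus GST-SBP nonspecific binding control pulldown.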 The conditions noted are these: RBNS binding buffer: 25 mM Tris pH 7.5, 150 mM KCl, 3 mM MgCl2, 0.1% Tween, 0.5 mg/mL BSA, 1 mM DTT; 27 nM protein, 750 pM RNA pool; temperature not stated; high values mean tight binding.
Turning to “GGUCACGUCUCAAUCAACUCUUCGUCAGGAGUUUCCUCCUGUUAAUUCAACAGCUCGCAGUCAAG”, the binding signal (log2 fold change) came to 0.0278.
With “GGUCACGUCUCAAUCAACUCAAUCUCCAGGGAAAACCCUGGUAUACUCAACAGCUCGCAGUCAAG”, the binding signal (log2 fold change) is 0.131.
For “GGUCACGUCUCAAUCAACUCAAAAGAGGGGGGGAAAACCCCUUUACCCUCCGUUUCAACAGCUCGCAGUCAAG” the value was -0.372; for “GGUCACGUCUCAAUCAACUCAAACGAGGGGGGGAAAACCCCUUUACCCUCAAUGUCAACAGCUCGCAGUCAAG”, -0.228; for “GGUCACGUCUCAAUCAACUCAUUUUCCAGGGAAAACCCUGGCAUUUUCAACAGCUCGCAGUCAAG”, -0.128.
“GGUCACGUCUCAAUCAACUCAAUUCCCAGGGAAAUCCCUGGCUAACUCAACAGCUCGCAGUCAAG”: the binding signal (log2 fold change) is -0.0882.
In the case of “GGUCACGUCUCAAUCAACUCAGUCCCAGGAGUUUGCUCCUGCUUUUUCAACAGCUCGCAGUCAAG”, the binding signal (log2 fold change) came out at 0.0623.
Consider “GGUCACGUCUCAAUCAACUCUUUCGAGGGGGGGAAAACCCCUUUACCCUCAUUUUCAACAGCUCGCAGUCAAG”, for which the binding signal (log2 fold change) was -0.381.
Consider “GGUCACGUCUCAAUCAACUCUUAAGAGGGGGGGAAAACCCCUUUACCCUCCGUAUCAACAGCUCGCAGUCAAG”, for which the binding signal (log2 fold change) is -0.283.
As for “GGUCACGUCUCAAUCAACUCCCUAGAGGGGGGGAAAACCCCUUUGCCCUCAAACUCAACAGCUCGCAGUCAAG”, the binding signal (log2 fold change) is -0.128.
The figure for “GGUCACGUCUCAAUCAACUCUACUUCCAGGGAAAACCCUGGUUAUCUCAACAGCUCGCAGUCAAG” is -0.0077.
The figure for “GGUCACGUCUCAAUCAACUCUUUUUCAGGAGUUUUCUCCUGCUUUUUCAACAGCUCGCAGUCAAG” is -0.0682.
The figure for “GGUCACGUCUCAAUCAACUCAUUCUCCAGGGAAAUCCCUGGUAUUCUCAACAGCUCGCAGUCAAG” is 0.218; for “GGUCACGUCUCAAUCAACUCAGUUCCCAGGGAAAGCCCUGGCAUAUUCAACAGCUCGCAGUCAAG” it is 0.0778.
In the case of “GGUCACGUCUCAAUCAACUCUUUAGAGGGGGGGAAAACCCCUUUACCCUCCGUUUCAACAGCUCGCAGUCAAG”, the binding signal (log2 fold change) is -0.144.
As to “GGUCACGUCUCAAUCAACUCCAAAGAGGGGGGGAAAACCCCUUUACCCUCACUUUCAACAGCUCGCAGUCAAG”, the binding signal (log2 fold change) turned out to be 0.398.
As for “GGUCACGUCUCAAUCAACUCUUUUCCAGGAGUUUACUCCUGCUAUUUCAACAGCUCGCAGUCAAG”, the binding signal (log2 fold change) is -0.167.
On to “GGUCACGUCUCAAUCAACUCUACAGAGGGGGGGAAAACCCCUUUACCCUCAACCUCAACAGCUCGCAGUCAAG”, for which the binding signal (log2 fold change) was -0.464.
For “GGUCACGUCUCAAUCAACUCUCUAGAGGGGGGGAAAACCCCUUUACCCUCGUUCUCAACAGCUCGCAGUCAAG” the value was -0.323; for “GGUCACGUCUCAAUCAACUCAGUCCCCAGGGAAAACCCUGGCAAAUUCAACAGCUCGCAGUCAAG”, -0.0242; for “GGUCACGUCUCAAUCAACUCCAAAGAGGGGGGGAAAACCCCUUUGCCCUCAUCAUCAACAGCUCGCAGUCAAG”, -0.322.
For “GGUCACGUCUCAAUCAACUCAUGUCCAGGAGUUUCCUCCUGUUUUCUCAACAGCUCGCAGUCAAG” the value was -0.243; for “GGUCACGUCUCAAUCAACUCUAUUUCAGGAGUUUCCUCCUGCUUAUUCAACAGCUCGCAGUCAAG”, -0.0529; for “GGUCACGUCUCAAUCAACUCUACUUCAGGAGUUUACUCCUGUAUAUUCAACAGCUCGCAGUCAAG”, 0.084.
Turning to “GGUCACGUCUCAAUCAACUCCCAGGAGGGGGGGAAAACCCCUUUACCCUCAAUCUCAACAGCUCGCAGUCAAG”, the binding signal (log2 fold change) is -0.283.
For the sequence “GGUCACGUCUCAAUCAACUCUCCAGAGGGGGGGAAAACCCCUUUGCCCUCCACAUCAACAGCUCGCAGUCAAG”, the binding signal (log2 fold change) stood at 0.318.
As for “GGUCACGUCUCAAUCAACUCCUAAGAGGGGGGGAAAACCCCUUUACCCUCACUAUCAACAGCUCGCAGUCAAG”, the binding signal (log2 fold change) was determined as 0.433.
On to “GGUCACGUCUCAAUCAACUCCUAAGAGGGGGGGAAAACCCCUUUACCCUCCACGUCAACAGCUCGCAGUCAAG”, for which the binding signal (log2 fold change) is -0.0502.
For “GGUCACGUCUCAAUCAACUCUUCCUCAGGAGUUUCCUCCUGCUAAUUCAACAGCUCGCAGUCAAG” the value was -0.0645.
Take “GGUCACGUCUCAAUCAACUCUUAAGAGGGGGGGAAAACCCCUUUGCCCUCGAAAUCAACAGCUCGCAGUCAAG”: the binding signal (log2 fold change) came to 0.0747.
Regarding “GGUCACGUCUCAAUCAACUCUAUCCCCAGGGAAACCCCUGGCUAUUUCAACAGCUCGCAGUCAAG”, the binding signal (log2 fold change) was -0.00996.
The figure for “GGUCACGUCUCAAUCAACUCUUCUUCAGGAGUUUCCUCCUGUAUUCUCAACAGCUCGCAGUCAAG” is 0.187.
For “GGUCACGUCUCAAUCAACUCAUCCGAGGGGGGGAAAACCCCUUUACCCUCAACCUCAACAGCUCGCAGUCAAG”, the binding signal (log2 fold change) was -0.308.
Regarding “GGUCACGUCUCAAUCAACUCAUUUUCAGGAGUUUCCUCCUGCAAUCUCAACAGCUCGCAGUCAAG”, the binding signal (log2 fold change) is -0.0778.
The figure for “GGUCACGUCUCAAUCAACUCUUAAGAGGGGGGGAAAACCCCUUUACCCUCCGCAUCAACAGCUCGCAGUCAAG” is -0.353; for “GGUCACGUCUCAAUCAACUCAUUCGCAGGAGUUUUCUCCUGGUAUCUCAACAGCUCGCAGUCAAG” it is -0.0537.
The figure for “GGUCACGUCUCAAUCAACUCAUCUCCAGGAGUUUUCUCCUGCUUUUUCAACAGCUCGCAGUCAAG” is 0.0146; for “GGUCACGUCUCAAUCAACUCAUCGUCAGGAGUUUGCUCCUGCUUAUUCAACAGCUCGCAGUCAAG” it is 0.0208; for “GGUCACGUCUCAAUCAACUCAUUUCCAGGAGUUUUCUCCUGCUUACUCAACAGCUCGCAGUCAAG” it is 0.0953.
For “GGUCACGUCUCAAUCAACUCAAUCUCAGGAGUUUGCUCCUGCUAUUUCAACAGCUCGCAGUCAAG” the value was 0.199.
As to “GGUCACGUCUCAAUCAACUCAUCCCCAGGAGUUUACUCCUGCAAACUCAACAGCUCGCAGUCAAG”, the binding signal (log2 fold change) was determined as 0.0741.
As to “GGUCACGUCUCAAUCAACUCUAUCUCCAGGGAAAGCCCUGGCUUUUUCAACAGCUCGCAGUCAAG”, the binding signal (log2 fold change) is -0.529.
“GGUCACGUCUCAAUCAACUCAUCCUCAGGAGUUUACUCCUGCAAUGUCAACAGCUCGCAGUCAAG”: the binding signal (log2 fold change) is -0.055.
Turning to “GGUCACGUCUCAAUCAACUCAUCUUCCAGGGAAAACCCUGGUAUAUUCAACAGCUCGCAGUCAAG”, the binding signal (log2 fold change) was -0.0205.
For the sequence “GGUCACGUCUCAAUCAACUCUUCGUCCAGGGAAAGCCCUGGCUAAUUCAACAGCUCGCAGUCAAG”, the binding signal (log2 fold change) worked out at 0.0315.
As to “GGUCACGUCUCAAUCAACUCUUCCCCCAGGGAAACCCCUGGCAAUUUCAACAGCUCGCAGUCAAG”, the binding signal (log2 fold change) was determined as 0.143.
For the sequence “GGUCACGUCUCAAUCAACUCAUUUUCAGGAGUUUCCUCCUGUAUACUCAACAGCUCGCAGUCAAG”, the binding signal (log2 fold change) came to 0.000341.
For “GGUCACGUCUCAAUCAACUCAUCGUCAGGAGUUUACUCCUGUAUUUUCAACAGCUCGCAGUCAAG”, the binding signal (log2 fold change) is -0.00641.
Regarding “GGUCACGUCUCAAUCAACUCAAAAGAGGGGGGGAAAACCCCUUUACCCUCACAAUCAACAGCUCGCAGUCAAG”, the binding signal (log2 fold change) is -0.107.
Regarding “GGUCACGUCUCAAUCAACUCACUAGAGGGGGGGAAAACCCCUUUGCCCUCACAAUCAACAGCUCGCAGUCAAG”, the binding signal (log2 fold change) stood at 0.268.
The figure for “GGUCACGUCUCAAUCAACUCUUUUCCCAGGGAAACCCCUGGCUUAUUCAACAGCUCGCAGUCAAG” is 0.0598; for “GGUCACGUCUCAAUCAACUCAAUUUCAGGAGUUUCCUCCUGUAUAUUCAACAGCUCGCAGUCAAG” it is -0.00968.
Turning to “GGUCACGUCUCAAUCAACUCUCCCGAGGGGGGGAAAACCCCUUUACCCUCAUCGUCAACAGCUCGCAGUCAAG”, the binding signal (log2 fold change) was -0.185.
Turning to “GGUCACGUCUCAAUCAACUCUACUCCCAGGGAAACCCCUGGCUUAUUCAACAGCUCGCAGUCAAG”, the binding signal (log2 fold change) is -0.137.
“GGUCACGUCUCAAUCAACUCAUCAGAGGGGGGGAAAACCCCUUUACCCUCCAUAUCAACAGCUCGCAGUCAAG”: the binding signal (log2 fold change) worked out at 0.0306.
On to “GGUCACGUCUCAAUCAACUCAUCCCCAGGAGUUUCCUCCUGCAUACUCAACAGCUCGCAGUCAAG”, for which the binding signal (log2 fold change) was 0.149.
On to “GGUCACGUCUCAAUCAACUCGUCUUCAGGAGUUUUCUCCUGCAUAUUCAACAGCUCGCAGUCAAG”, for which the binding signal (log2 fold change) stood at 0.0526.
The figure for “GGUCACGUCUCAAUCAACUCAUCGUCAGGAGUUUACUCCUGCUUAUUCAACAGCUCGCAGUCAAG” is 0.197; for “GGUCACGUCUCAAUCAACUCAAUCUCAGGAGUUUACUCCUGCAAAGUCAACAGCUCGCAGUCAAG” it is 0.321.
The figure for “GGUCACGUCUCAAUCAACUCUAUUUCAGGAGUUUCCUCCUGCAUUCUCAACAGCUCGCAGUCAAG” is 0.135; for “GGUCACGUCUCAAUCAACUCAUCUUCCAGGGAAAUCCCUGGUUUUUUCAACAGCUCGCAGUCAAG” it is -0.164.
For “GGUCACGUCUCAAUCAACUCUUCAGAGGGGGGGAAAACCCCUUUACCCUCAAUUUCAACAGCUCGCAGUCAAG” the value was -0.148; for “GGUCACGUCUCAAUCAACUCUUUCCCAGGAGUUUCCUCCUGCUUUCUCAACAGCUCGCAGUCAAG”, 0.0687.
Consider “GGUCACGUCUCAAUCAACUCUUCUCCCAGGGAAAACCCUGGUAUUUUCAACAGCUCGCAGUCAAG”, for which the binding signal (log2 fold change) is -0.235.
In the case of “GGUCACGUCUCAAUCAACUCUCACGAGGGGGGGAAAACCCCUUUACCCUCUACCUCAACAGCUCGCAGUCAAG”, the binding signal (log2 fold change) worked out at 0.216.
For “GGUCACGUCUCAAUCAACUCAUUUUCAGGAGUUUACUCCUGCUUAUUCAACAGCUCGCAGUCAAG” the value was 0.078; for “GGUCACGUCUCAAUCAACUCUAAAGAGGGGGGGAAAACCCCUUUGCCCUCAAAUUCAACAGCUCGCAGUCAAG”, -0.065.
The figure for “GGUCACGUCUCAAUCAACUCAUCGUCAGGAGUUUCCUCCUGUUAUCUCAACAGCUCGCAGUCAAG” is 0.0379; for “GGUCACGUCUCAAUCAACUCUAUCCCAGGAGUUUACUCCUGCAUUUUCAACAGCUCGCAGUCAAG” it is -0.00693.
“GGUCACGUCUCAAUCAACUCUACUCCAGGAGUUUUCUCCUGCUAAUUCAACAGCUCGCAGUCAAG”: the binding signal (log2 fold change) was -0.02.
As to “GGUCACGUCUCAAUCAACUCAUUUUCCAGGGAAACCCCUGGCAAUCUCAACAGCUCGCAGUCAAG”, the binding signal (log2 fold change) was determined as 0.0974.
For “GGUCACGUCUCAAUCAACUCUACUCCCAGGGAAAACCCUGGCAUACUCAACAGCUCGCAGUCAAG” the value was 0.0528; for “GGUCACGUCUCAAUCAACUCAUUUCCCAGGGAAACCCCUGGUAUUUUCAACAGCUCGCAGUCAAG”, -0.0436.

Values taken from PMC5892938.
